From PubChem BioAssay AID504339 (National Center for Advancing Translational Sciences (NCATS), 2011)
Out of some 390,000 compounds screened, about 17,000 (4.4%) were called active. The inconclusive results got no clear call from the source; some entries with a clear call stand among them for comparison. Calls come from the whole dose curve; as a rule, active = well fitted inhibition curve with a large enough effect; inconclusive = small, poorly fitted or top-dose-only effect; inactive = no such curve, though single readings can be large or run the other way. Potencies beside an inconclusive call are fits to weak or partial responses and may not hold up.

Molecular target: Lysine-specific demethylase 4A (Homo sapiens) (UniProt O75164)
Assay: qHTS Assay for Inhibitors of JMJD2A-Tudor Domain; note: nearly all actives have a fitted effect of over 50% in size
Details: AlphaScreen JMJD2A-Tudor / H3K4me3 peptide binding; series mostly up to 114 µM
Potency is the fitted concentration of half-maximal effect; tags give direction and shape of the fitted curve.

Sequence of UniProt O75164 (O75164 whole entry, looked up, the tested form may be a part): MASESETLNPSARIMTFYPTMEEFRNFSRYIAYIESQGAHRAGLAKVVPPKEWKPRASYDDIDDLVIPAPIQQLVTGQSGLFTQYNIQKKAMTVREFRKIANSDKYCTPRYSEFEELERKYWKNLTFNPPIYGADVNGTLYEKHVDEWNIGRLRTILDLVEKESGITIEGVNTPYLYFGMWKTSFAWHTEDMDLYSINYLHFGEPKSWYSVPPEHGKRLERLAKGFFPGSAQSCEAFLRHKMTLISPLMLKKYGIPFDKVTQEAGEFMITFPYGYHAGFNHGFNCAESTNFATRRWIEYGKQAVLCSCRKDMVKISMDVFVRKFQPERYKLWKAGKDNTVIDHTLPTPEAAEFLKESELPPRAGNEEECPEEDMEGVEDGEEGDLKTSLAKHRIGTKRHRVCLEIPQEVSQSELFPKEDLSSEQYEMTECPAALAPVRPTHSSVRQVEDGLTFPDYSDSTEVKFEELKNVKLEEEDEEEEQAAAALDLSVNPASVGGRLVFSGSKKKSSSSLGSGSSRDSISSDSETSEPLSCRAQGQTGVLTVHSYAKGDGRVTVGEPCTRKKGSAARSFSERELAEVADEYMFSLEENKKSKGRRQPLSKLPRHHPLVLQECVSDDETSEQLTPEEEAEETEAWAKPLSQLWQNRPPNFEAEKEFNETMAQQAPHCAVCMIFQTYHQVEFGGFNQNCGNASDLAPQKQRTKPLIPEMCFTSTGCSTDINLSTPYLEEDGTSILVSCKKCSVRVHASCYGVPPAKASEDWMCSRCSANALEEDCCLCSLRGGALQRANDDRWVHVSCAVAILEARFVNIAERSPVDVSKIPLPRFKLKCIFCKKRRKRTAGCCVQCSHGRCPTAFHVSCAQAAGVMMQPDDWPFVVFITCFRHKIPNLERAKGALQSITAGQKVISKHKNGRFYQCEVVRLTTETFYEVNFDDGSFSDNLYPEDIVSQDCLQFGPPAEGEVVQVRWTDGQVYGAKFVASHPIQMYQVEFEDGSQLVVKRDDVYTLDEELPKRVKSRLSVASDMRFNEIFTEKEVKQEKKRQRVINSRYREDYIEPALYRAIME

Structure (SMILES)	Potency
CCCS(=O)(=O)c1cn2cccc(N)c2c1S(=O)(=O)CCC	inconclusive: 89.1 µM [inhibitor, partial curve]
O=C(CCOc1ccccc1)N(Cc1cccnc1)c1nc2c(F)cc(F)cc2s1	inactive
CC1CCN(C(=O)CSc2nc(=O)n3ccccc3n2)CC1	inactive
CCOc1ccc(NC(=O)C(CC)n2c(=O)c(-c3ccccc3NC(C)=O)nc3ccccc32)cc1 (stereo not given)	inactive
COc1cc(C2(c3ccc(O)c(OC)c3)C(=O)N(C)c3ccc(Br)cc32)ccc1O	inconclusive: 7.94 µM [inhibitor, full curve, poor fit]
COc1ccc(NC(=O)CC2C(=O)N(Cc3ccccc3)C(=S)N2CCN2CCOCC2)cc1 (stereo not given)	inactive
Cc1cc(C(=O)COc2ccc(-c3nnco3)cc2)c(C)n1Cc1ccccc1	inconclusive: 25.1 µM [inhibitor, full curve]
COCCNC(=O)C(C#N)c1nc2ccccc2nc1N1CCCCCC1 (stereo not given)	inconclusive: 50.1 µM [inhibitor, partial curve]
O=C(N/N=C/C(Cl)=C/c1ccc([N+](=O)[O-])cc1)C(=O)Nc1ccccc1C(=O)O	inconclusive: 56.2 µM [inhibitor, partial curve]
Cc1ccc(S(=O)(=O)N2CCOCC2)cc1NC(=O)CNC1CCCC1	active: 5.01 µM
c1csc(-c2nc(N3CCOCC3)c3ccccc3n2)c1	inactive
O=[N+]([O-])c1cccc(C([O-])=C(C(=S)Nc2cccc3ccccc23)[n+]2ccccc2)c1	inconclusive: 44.7 µM [inhibitor, partial curve]
CCc1ccc(/C=N/n2c(C3CCCCC3)n[nH]c2=S)cc1	inconclusive: 44.7 µM [inhibitor, partial curve]
Cc1ccc(CNC(=O)CCC(=O)N2CC3CCCN3c3ccccc32)cc1 (stereo not given)	inconclusive: 50.1 µM [inhibitor, partial curve, poor fit]
C=CCOC(=O)C1=C(C)NC(=S)C(C#N)(CC=C)C1c1ccccc1Cl (stereo not given)	inconclusive: 89.1 µM [inhibitor, partial curve, poor fit]
COc1ccccc1-c1nnc(SC(C)C(=O)NCC2CCCO2)n1C (stereo not given)	inactive
O=S(=O)(NC1CC1)c1ccc2c3c(cccc13)CC2	active: 17.8 µM
Fc1ccc(C2CC(c3ccco3)=NN2c2ccccc2)cc1 (stereo not given)	inactive
Cc1ccc(C2CC2c2n[nH]c(=S)n2-c2cccc(Cl)c2)cc1 (stereo not given)	inconclusive: 70.8 µM [inhibitor, partial curve]
CN(C)c1cccc(C(=O)NC2CCCCCC2)c1	inconclusive: 79.4 µM [inhibitor, single point]
